Values marked as one replicate rest on one cluster of the flow cell; about a third of the high ones do not repeat.
Each sequence was assayed on ATP (assay: switch fluorescence ratio, 500 uM ATP over buffer (Cy3 cluster intensity, sum of 5 cycles each) (fold (ratio)); higher = stronger signal-on switching upon ATP binding; sequences stand for … in TCGTCGGCAGCGTCAGATGTGTATAAGAGACAGTTTTTTTTTTTTTTTTTTTTTTTTT…TC). Settings: aptamer strand: ATP DNA aptamer (quencher-CACCTGGGGGAGTATTGCGGAGGAAGG + anchor), 100 nM annealed; ATP concentration: 500 uM; one replicate.
In short: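 The quencher-labelled ATP aptamer, at 100 nM, was annealed to Cy3-labelled switching-strand clusters on a modified Illumina MiSeq flow-cell. The clusters were imaged in selection buffer, then after 15 min with 500 uM ATP at 22 °C, and this buffer/ATP cycle ran five times with NaOH stripping and re-annealing between runs. Per-cluster fluorescence ratios, summed target-cycle over summed buffer-cycle Cy3 intensity, were averaged per switch-domain sequence. Clusters outside 100-1000 RFU were excluded.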
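Further: ATP exposure 15 min at 22 °C before imaging.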

| Sequence | switch fluorescence ratio |
| --- | --- |
| ATAGAACGA | 1.04 |
| ATAGAACGGA | 1.01 |
| ATAGACATCT | 0.986 |
| ATAGACATTC | 0.996 |
| ATAGAGATGG | 1.03 |
| ATAGAGTCTA | 0.999 |
| ATAGAGTTTC | 0.971 |
| ATAGATAGAC | 0.981 |
| ATAGATGAAA | 0.954 |
| ATAGCATATA | 1.04 |
| ATAGCATGGT | 0.994 |
| ATAGCCAGTA | 0.925 |
| ATAGCCTTGT | 0.97 |
| ATAGCTCA | 1.07 |
| ATAGCTGGAC | 1.09 |
| ATAGGAATCG | 0.961 |
| ATAGGAGAGG | 0.989 |
| ATAGGCAAA | 0.997 |
| ATAGGCTGGA | 1.05 |
| ATAGGCTGGG | 1.03 |
| ATAGGGCCGT | 0.99 |
| ATAGGGGAG | 0.969 |
| ATAGGGTTCG | 1 |
| ATAGGTCTGT | 0.971 |
| ATAGGTGTCT | 1.04 |

| Sequence | switch fluorescence ratio |
| --- | --- |
| ATAGGTTATT | 0.983 |
| ATAGTATGA | 1 |
| ATAGTCTCGT | 0.918 |
| ATAGTGAAC | 0.985 |
| ATAGTTCTTG | 1.01 |
| ATATAACTTG | 0.965 |
| ATATAAGTGG | 1.03 |
| ATATAATGTG | 1.04 |
| ATATAGCAAT | 2.68 |
| ATATAGCTTA | 1.02 |
| ATATAGGAGA | 1.04 |
| ATATAGTACG | 1.03 |
| ATATAGTGAC | 1.01 |
| ATATATAAG | 0.97 |
| ATATATAATC | 0.989 |
| ATATATCTTG | 1.01 |
| ATATATTTGC | 1.01 |
| ATATCAGCT | 1.02 |
| ATATCAGTCT | 0.996 |
| ATATCATACT | 1.02 |
| ATATCCAGGT | 1.24 |
| ATATCCCTAC | 1.06 |
| ATATCGGTTC | 0.949 |
| ATATCGTAAA | 1.01 |
| ATATCTCTTG | 0.987 |

| Sequence | switch fluorescence ratio |
| --- | --- |
| ATATGAATTA | 0.999 |
| ATATGACTGG | 1.05 |
| ATATGATTCT | 0.975 |
| ATATGCCGTC | 0.998 |
| ATATGGAAGA | 1.01 |
| ATATGGCAAA | 1.04 |
| ATATGTACA | 1.03 |
| ATATGTAGTG | 1.02 |
| ATATGTGAGA | 1.02 |
| ATATGTGAT | 1.03 |
| ATATGTTAGC | 1.02 |
| ATATGTTCTC | 1.01 |
| ATATGTTGTA | 0.941 |
| ATATTAAGT | 0.972 |
| ATATTACAAC | 0.994 |
| ATATTAGCGA | 1.04 |
| ATATTAGCGG | 0.97 |
| ATATTATGTG | 1 |
| ATATTCAAGC | 0.99 |
| ATATTCGCCT | 1.02 |
| ATATTCTGAT | 0.962 |
| ATATTGGGG | 0.986 |
| ATATTGTAAT | 1.03 |
| ATATTTGCG | 0.933 |
| ATATTTGCT | 1.02 |

| Sequence | switch fluorescence ratio |
| --- | --- |
| ATCAAAGGCG | 1.03 |
| ATCAAAGTAC | 1.45 |
| ATCAAAGTGC | 1.05 |
| ATCAAATGGC | 1.04 |
| ATCAACCCA | 0.986 |
| ATCAAGAGTG | 0.998 |
| ATCAAGTGTG | 0.96 |
| ATCAAGTTAA | 1.01 |
| ATCAATATGG | 0.972 |
| ATCAATCGCG | 0.978 |
| ATCAATGTAT | 0.968 |
| ATCAATTTTC | 0.972 |
| ATCACATGTT | 0.974 |
| ATCACCGAGT | 1.02 |
| ATCACCGATT | 0.997 |
| ATCACGCCGG | 1.02 |
| ATCACGGTTA | 1.05 |
| ATCACTCAGA | 1.03 |
| ATCACTGAAT | 1.01 |
| ATCAGAAA | 1.03 |
| ATCAGAATGG | 0.999 |
| ATCAGAGGAC | 0.997 |
| ATCAGATCCG | 0.983 |
| ATCAGATTTG | 1 |
| ATCAGCATAT | 1.35 |
